Laboratory results taken from the supplement of paper PMC12217912.
Some of the results follow. The full chains were built here from the parent and the listed change. Values near 0.05 are background.

B1: TEV protease; numbered along this chain (parent)
chain: MGESLFKGPRDYNPISSSICHLTNESDGHTTSLYGIGFGPFIITNKHLFRRNNGTLVVQSLHGVFKVKDTTTLQQHLVDGRDMIIIRMPKDFPPFPQKLKFREPQREERICLVTTNFQTKSMSSMVSDTSCTFPSGDGIFWKHWIQTKDGQCGSPLVSTRDGFIVGIHSASNFTNTNNYFTSVPKNFMELLTNQEAQQWVSGWRLNADSVLWGGHKVFMVKPEEPFQPVKEATQL

Variants of: B1
Assay: raw area under fraction-flipped curve 0-4 h after induction (AUC4h, not background-subtracted), DNA-recorder readout of cleavage of the substrate (dimensionless); higher = more cleavage of the substrate by the protease variant
Conditions: temperature: 34 °C; time window: 0-4 h after rhamnose induction
Experimental: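 In vivo DNA recorder in E. coli TOP10(DE3) ΔrhaA at 34 °C. Each TEVp single-site mutant (parent TEVp 0) is paired with a single-site variant of the 7-mer TEVs (canonical ENLYFQ|S). The substrate sits between flexible linkers in a Bxb1-sfGFP-TEVs-SsrA fusion, so cleavage stabilises Bxb1 and speeds flipping of a recombination array, read by NGS. The value is the raw area under the fraction-flipped curve over 0-4 h after rhamnose induction (AUC4h), with ≥20 reads per time point. It is not background-subtracted; inactive controls average about 0.047.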
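Also: Bxb1 expression induced with 0.2% (w/v) L-rhamnose at OD600 near 0.5, cultures sampled hourly, flipped fraction per protease–substrate barcode pair counted by paired-end Illumina sequencing.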

Variant | area with substrate CNLYFQS | area with substrate FNLYFQS | area with substrate HNLYFQS | area with substrate INLYFQS | area with substrate KNLYFQS | area with substrate MNLYFQS | area with substrate NNLYFQS | area with substrate SNLYFQS | area with substrate TNLYFQS | area with substrate WNLYFQS | area with substrate GNLYFQS | area with substrate PNLYFQS | area with substrate QNLYFQS | area with substrate YNLYFQS | area with substrate LNLYFQS | area with substrate VNLYFQS
MGESLFKGPRDYNPISSSICHLTNESDGHTTSLYGIGFGPFIITNKHLFRRNNGTLVVQSLHGVFKKKDTTTLQQHLVDGRDMIIIRMPKDFPPFPQKLKFREPQREERICLVTTNFQTKSMSSMVSDTSCTFPSGDGIFWKHWIQTKDGQCGSPLVSTRDGFIVGIHSASNFTNTNNYFTSVPKNFMELLTNQEAQQWVSGWRLNADSVLWGGHKVFMVKPEEPFQPVKEATQL [V67K] | 0.051 | 0.0567 | 0.0488 | 0.0359 | 0.0622 | 0.0553 | 0.0551 | 0.0522 | 0.051 | 0.0572 |  |  |  |  |  | 
MGESLFKGPRDYNPISSSICHLTNESDGHTTSLYGIGFGPFIITNKHLFRRNNGTLVVQSLHGVFKNKDTTTLQQHLVDGRDMIIIRMPKDFPPFPQKLKFREPQREERICLVTTNFQTKSMSSMVSDTSCTFPSGDGIFWKHWIQTKDGQCGSPLVSTRDGFIVGIHSASNFTNTNNYFTSVPKNFMELLTNQEAQQWVSGWRLNADSVLWGGHKVFMVKPEEPFQPVKEATQL [V67N] | 0.0444 |  | 0.0252 | 0.0412 |  | 0.0677 |  | 0.0558 |  | 0.0486 | 0.068 | 0.0593 | 0.0478 | 0.0538 |  | 
MGESLFKGPRDYNPISSSICHLTNESDGHTTSLYGIGFGPFIITNKHLFRRNNGTLVVQSLHGVFKPKDTTTLQQHLVDGRDMIIIRMPKDFPPFPQKLKFREPQREERICLVTTNFQTKSMSSMVSDTSCTFPSGDGIFWKHWIQTKDGQCGSPLVSTRDGFIVGIHSASNFTNTNNYFTSVPKNFMELLTNQEAQQWVSGWRLNADSVLWGGHKVFMVKPEEPFQPVKEATQL [V67P] | 0.0313 |  | 0.0386 | 0.0548 | 0.0305 | 0.0378 |  | 0.0354 | 0.0452 |  |  | 0.0438 |  | 0.0181 | 0.0242 | 
MGESLFKGPRDYNPISSSICHLTNESDGHTTSLYGIGFGPFIITNKHLFRRNNGTLVVQSLHGVFKYKDTTTLQQHLVDGRDMIIIRMPKDFPPFPQKLKFREPQREERICLVTTNFQTKSMSSMVSDTSCTFPSGDGIFWKHWIQTKDGQCGSPLVSTRDGFIVGIHSASNFTNTNNYFTSVPKNFMELLTNQEAQQWVSGWRLNADSVLWGGHKVFMVKPEEPFQPVKEATQL [V67Y] | 0.0653 |  | 0.0605 |  | 0.0553 | 0.0581 |  | 0.0641 |  |  |  | 0.0377 |  | 0.0746 | 0.0778 | 
MGESLFKGPRDYNPISSSICHLTNESDGHTTSLYGIGFGPFIITNKHLFRRNNGTLVVQSLHGVFKVDDTTTLQQHLVDGRDMIIIRMPKDFPPFPQKLKFREPQREERICLVTTNFQTKSMSSMVSDTSCTFPSGDGIFWKHWIQTKDGQCGSPLVSTRDGFIVGIHSASNFTNTNNYFTSVPKNFMELLTNQEAQQWVSGWRLNADSVLWGGHKVFMVKPEEPFQPVKEATQL [K68D] | 0.097 |  | 0.0617 | 0.0802 | 0.0719 |  | 0.0573 | 0.0622 |  | 0.0646 |  | 0.0842 |  |  |  | 
MGESLFKGPRDYNPISSSICHLTNESDGHTTSLYGIGFGPFIITNKHLFRRNNGTLVVQSLHGVFKVGDTTTLQQHLVDGRDMIIIRMPKDFPPFPQKLKFREPQREERICLVTTNFQTKSMSSMVSDTSCTFPSGDGIFWKHWIQTKDGQCGSPLVSTRDGFIVGIHSASNFTNTNNYFTSVPKNFMELLTNQEAQQWVSGWRLNADSVLWGGHKVFMVKPEEPFQPVKEATQL [K68G] | 0.0635 | 0.0788 | 0.0609 |  | 0.0662 |  | 0.0748 |  |  |  |  | 0.0616 | 0.0733 |  |  | 
MGESLFKGPRDYNPISSSICHLTNESDGHTTSLYGIGFGPFIITNKHLFRRNNGTLVVQSLHGVFKVHDTTTLQQHLVDGRDMIIIRMPKDFPPFPQKLKFREPQREERICLVTTNFQTKSMSSMVSDTSCTFPSGDGIFWKHWIQTKDGQCGSPLVSTRDGFIVGIHSASNFTNTNNYFTSVPKNFMELLTNQEAQQWVSGWRLNADSVLWGGHKVFMVKPEEPFQPVKEATQL [K68H] | 0.0708 |  |  | 0.0351 |  | 0.0749 |  | 0.0693 |  | 0.0583 |  | 0.054 | 0.0543 |  |  | 
MGESLFKGPRDYNPISSSICHLTNESDGHTTSLYGIGFGPFIITNKHLFRRNNGTLVVQSLHGVFKVPDTTTLQQHLVDGRDMIIIRMPKDFPPFPQKLKFREPQREERICLVTTNFQTKSMSSMVSDTSCTFPSGDGIFWKHWIQTKDGQCGSPLVSTRDGFIVGIHSASNFTNTNNYFTSVPKNFMELLTNQEAQQWVSGWRLNADSVLWGGHKVFMVKPEEPFQPVKEATQL [K68P] | 0.0655 |  | 0.0675 | 0.0594 |  | 0.0487 |  | 0.0657 | 0.0786 | 0.0552 |  | 0.0758 |  |  |  | 
MGESLFKGPRDYNPISSSICHLTNESDGHTTSLYGIGFGPFIITNKHLFRRNNGTLVVQSLHGVFKVWDTTTLQQHLVDGRDMIIIRMPKDFPPFPQKLKFREPQREERICLVTTNFQTKSMSSMVSDTSCTFPSGDGIFWKHWIQTKDGQCGSPLVSTRDGFIVGIHSASNFTNTNNYFTSVPKNFMELLTNQEAQQWVSGWRLNADSVLWGGHKVFMVKPEEPFQPVKEATQL [K68W] | 0.0573 | 0.0539 | 0.0627 | 0.0582 | 0.0788 | 0.0657 |  | 0.0912 | 0.0625 | 0.0761 |  | 0.059 |  | 0.0618 |  | 
MGESLFKGPRDYNPISSSICHLTNESDGHTTSLYGIGFGPFIITNKHLFRRNNGTLVVQSLHGVFKVKKTTTLQQHLVDGRDMIIIRMPKDFPPFPQKLKFREPQREERICLVTTNFQTKSMSSMVSDTSCTFPSGDGIFWKHWIQTKDGQCGSPLVSTRDGFIVGIHSASNFTNTNNYFTSVPKNFMELLTNQEAQQWVSGWRLNADSVLWGGHKVFMVKPEEPFQPVKEATQL [D69K] | 0.0658 |  |  | 0.0442 |  | 0.0614 |  |  | 0.0645 | 0.0511 | 0.0588 | 0.0624 |  | 0.0542 |  | 0.0508
MGESLFKGPRDYNPISSSICHLTNESDGHTTSLYGIGFGPFIITNKHLFRRNNGTLVVQSLHGVFKVKYTTTLQQHLVDGRDMIIIRMPKDFPPFPQKLKFREPQREERICLVTTNFQTKSMSSMVSDTSCTFPSGDGIFWKHWIQTKDGQCGSPLVSTRDGFIVGIHSASNFTNTNNYFTSVPKNFMELLTNQEAQQWVSGWRLNADSVLWGGHKVFMVKPEEPFQPVKEATQL [D69Y] | 0.102 |  | 0.056 |  |  | 0.054 |  | 0.0665 | 0.0589 |  | 0.0603 |  |  |  | 0.0698 | 0.066
